Where a chain is given by its changes, count along the chain named.
T1: Recombinant Human IL-17 (human, UniProt Q16552 20-155, limits assumed)
T1 sequence (looked up): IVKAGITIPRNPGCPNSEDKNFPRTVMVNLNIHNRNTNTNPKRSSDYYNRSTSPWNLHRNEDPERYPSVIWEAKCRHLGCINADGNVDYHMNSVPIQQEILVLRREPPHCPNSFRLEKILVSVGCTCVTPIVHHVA

B1: DVD2434 (bispecific antibody, human IgG1)
heavy: EVQLQESGPGLVKPSETLSLTCTVSGFSLSDYGVSWIRQPPGKGLEWLGLIWGGGDTYYNSPLKSRLTISKDNSKSQVSLKLSSVTAADTAVYYCAKQRTLWGYDLYGMDYWGQGTLVTVSSASTKGPSVFPLAPEVQLVQSGAEVKKPGSSVKVSCKASGGSFGGYGIGWVRQAPGQGLEWMGGITPFFGFADYAQKFQGRVTITADESTTTAYMELSGLTSDDTAVYYCARDPNEFWGGYYSTHDFDSWGQGTTVTVSS[human IgG1 constant region left out]
light: DTQVTQSPSSLSASVGDRVTITCITSTDIDVDMNWYQQKPGKPPKLLISQGNTLRPGVPSRFSSSGSGTDFTFTISSLQPEDFATYYCLQSDNLPLTFGQGTKLEIKRTVAAPSVFIFPPEIVLTQSPDFQSVTPKEKVTITCRASQDIGSELHWYQQKPDQPPKLLIKYASHSTSGVPSRFSGSGSGTDFTLTINGLEAEDAGTYYCHQTDSLPYTFGPGTKVDIKRTVAAPSVFIFPPSDEQLKSGTASVVCLLNNFYPREAKVQWKVDNALQSGNSQESVTEQDSKDSTYSLSSTLTLSKADYEKHKVYACEVTHQGLSSPVTKSFNRGEC
B2: DVD2427 (bispecific antibody, human IgG1)
heavy: EVQLVESGGGVVQPGRSLRLSCSASGFIFSRYDMSWVRQAPGKGLEWVAYISHGGAGTYYPDSVKGRFTISRDNSKNTLFLQMDSLRAEDTAVYYCARGGVYKGYFDVWGQGTPVTVSSASTKGPEVQLVQSGAEVKKPGSSVKVSCKASGGSFGGYGIGWVRQAPGQGLEWMGGITPFFGFADYAQKFQGRVTITADESTTTAYMELSGLTSDDTAVYYCARDPNEFWGGYYSTHDFDSWGQGTTVTVSS[human IgG1 constant region left out]
light: DIQMTQSPSSLSASVGDRVTITCRASGNIHNYLTWYQQTPGKAPKLLIYNAKTLADGVPSRFSGSGSGTDYTFTISSLQPEDIATYYCQHFWSIPYTFGQGTKLQITRTVAAPEIVLTQSPDFQSVTPKEKVTITCRASQDIGSELHWYQQKPDQPPKLLIKYASHSTSGVPSRFSGSGSGTDFTLTINGLEAEDAGTYYCHQTDSLPYTFGPGTKVDIKRTVAAPSVFIFPPSDEQLKSGTASVVCLLNNFYPREAKVQWKVDNALQSGNSQESVTEQDSKDSTYSLSSTLTLSKADYEKHKVYACEVTHQGLSSPVTKSFNRGEC
B3: DVD2423 (bispecific antibody, human IgG1)
heavy: B2 heavy with A88P, A92G, Y95F, Y102T
light: B2 light
B4: DVD2428 (bispecific antibody, human IgG1)
heavy: B2 heavy
light: DIQMTQSPSSLSASVGDRVTITCRASGNIHNYLTWYQQTPGKAPKLLIYNAKTLADGVPSRFSGSGSGTDYTFTISSLQPEDIATYYCQHFWSIPYTFGQGTKLQITRTVAAPSVFIFPPEIVLTQSPDFQSVTPKEKVTITCRASQDIGSELHWYQQKPDQPPKLLIKYASHSTSGVPSRFSGSGSGTDFTLTINGLEAEDAGTYYCHQTDSLPYTFGPGTKVDIKRTVAAPSVFIFPPSDEQLKSGTASVVCLLNNFYPREAKVQWKVDNALQSGNSQESVTEQDSKDSTYSLSSTLTLSKADYEKHKVYACEVTHQGLSSPVTKSFNRGEC
B5: DVD2424 (bispecific antibody, human IgG1)
heavy: B2 heavy with A88P, A92G, Y95F, Y102T
light: B4 light
B6: DVD2429 (bispecific antibody, human IgG1)
heavy: EVQLVESGGGVVQPGRSLRLSCSASGFIFSRYDMSWVRQAPGKGLEWVAYISHGGAGTYYPDSVKGRFTISRDNSKNTLFLQMDSLRAEDTAVYYCARGGVYKGYFDVWGQGTPVTVSSASTKGPSVFPLAPEVQLVQSGAEVKKPGSSVKVSCKASGGSFGGYGIGWVRQAPGQGLEWMGGITPFFGFADYAQKFQGRVTITADESTTTAYMELSGLTSDDTAVYYCARDPNEFWGGYYSTHDFDSWGQGTTVTVSS[human IgG1 constant region left out]
light: B2 light
B7: DVD2430 (bispecific antibody, human IgG1)
heavy: B6 heavy
light: B4 light
B8: DVD2431 (bispecific antibody, human IgG1)
heavy: EVQLQESGPGLVKPSETLSLTCTVSGFSLSDYGVSWIRQPPGKGLEWLGLIWGGGDTYYNSPLKSRLTISKDNSKSQVSLKLSSVTAADTAVYYCAKQRTLWGYDLYGMDYWGQGTLVTVSSASTKGPEVQLVQSGAEVKKPGSSVKVSCKASGGSFGGYGIGWVRQAPGQGLEWMGGITPFFGFADYAQKFQGRVTITADESTTTAYMELSGLTSDDTAVYYCARDPNEFWGGYYSTHDFDSWGQGTTVTVSS[human IgG1 constant region left out]
light: DTQVTQSPSSLSASVGDRVTITCITSTDIDVDMNWYQQKPGKPPKLLISQGNTLRPGVPSRFSSSGSGTDFTFTISSLQPEDFATYYCLQSDNLPLTFGQGTKLEIKRTVAAPEIVLTQSPDFQSVTPKEKVTITCRASQDIGSELHWYQQKPDQPPKLLIKYASHSTSGVPSRFSGSGSGTDFTLTINGLEAEDAGTYYCHQTDSLPYTFGPGTKVDIKRTVAAPSVFIFPPSDEQLKSGTASVVCLLNNFYPREAKVQWKVDNALQSGNSQESVTEQDSKDSTYSLSSTLTLSKADYEKHKVYACEVTHQGLSSPVTKSFNRGEC
B9: DVD2433 (bispecific antibody, human IgG1)
heavy: B1 heavy
light: B8 light
B10: DVD2432 (bispecific antibody, human IgG1)
heavy: B8 heavy
light: B1 light

molecular target: T1, Recombinant Human IL-17; assay: cell-based or functional assay

Row | C-Terminal VD IL17 Neutralization Assay (IC50 nM) [nM] | Binder
1 | 0.055 | B1
2 | 0.771 | B2
3 | 1.09 | B3
4 | 0.065 | B4
5 | 0.077 | B5
6 | 0.305 | B6
7 | 0.058 | B7
8 | 0.805 | B8
9 | 0.125 | B9
10 | 0.079 | B10

molecular target: Recombinant Human IL-1b (human, UniProt P01584 117-269); assay: cell-based or functional assay
Chain of UniProt P01584 (P01584 117-269 limits assumed): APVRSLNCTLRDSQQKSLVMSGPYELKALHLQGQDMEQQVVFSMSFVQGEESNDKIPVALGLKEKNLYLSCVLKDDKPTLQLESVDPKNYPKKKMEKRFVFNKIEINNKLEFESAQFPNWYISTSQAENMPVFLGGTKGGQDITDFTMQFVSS

Row | N-Terminal VD IL-1β Neutralization Assay (IC50 nM) [nM] | Binder
11 | 0.298 | B1
12 | 0.0003 | B2
13 | 0.0007 | B4
14 | 0.0009 | B6
15 | 0.168 | B8
16 | 0.295 | B9
17 | 0.194 | B10

Reference: patent US20140271458A1 (AbbVie / Abbott, published 2014)
